Reference: PMC6919601, “Identification of Plasmodium dipeptidyl aminopeptidase allosteric inhibitors by high throughput screening” (PLoS ONE, 2019)
Out of some 110,000 compounds screened, about 230 (0.21%) showed an effect of 50% or more. This is one part of the list.

Target: DPAP1 (Plasmodium falciparum, UniProt Q8IIJ9)
Assay: primary screen, percent inhibition; read by cleavage of a fluorogenic dipeptide substrate; higher = more effect of the substance
Parameters: species or system P. falciparum D10 trophozoite lysates; single well
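Further: 30 min substrate incubation versus DMSO and 10 µM JCP410 controls.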

Sequence of DPAP1 (Q8IIJ9 whole entry, looked up): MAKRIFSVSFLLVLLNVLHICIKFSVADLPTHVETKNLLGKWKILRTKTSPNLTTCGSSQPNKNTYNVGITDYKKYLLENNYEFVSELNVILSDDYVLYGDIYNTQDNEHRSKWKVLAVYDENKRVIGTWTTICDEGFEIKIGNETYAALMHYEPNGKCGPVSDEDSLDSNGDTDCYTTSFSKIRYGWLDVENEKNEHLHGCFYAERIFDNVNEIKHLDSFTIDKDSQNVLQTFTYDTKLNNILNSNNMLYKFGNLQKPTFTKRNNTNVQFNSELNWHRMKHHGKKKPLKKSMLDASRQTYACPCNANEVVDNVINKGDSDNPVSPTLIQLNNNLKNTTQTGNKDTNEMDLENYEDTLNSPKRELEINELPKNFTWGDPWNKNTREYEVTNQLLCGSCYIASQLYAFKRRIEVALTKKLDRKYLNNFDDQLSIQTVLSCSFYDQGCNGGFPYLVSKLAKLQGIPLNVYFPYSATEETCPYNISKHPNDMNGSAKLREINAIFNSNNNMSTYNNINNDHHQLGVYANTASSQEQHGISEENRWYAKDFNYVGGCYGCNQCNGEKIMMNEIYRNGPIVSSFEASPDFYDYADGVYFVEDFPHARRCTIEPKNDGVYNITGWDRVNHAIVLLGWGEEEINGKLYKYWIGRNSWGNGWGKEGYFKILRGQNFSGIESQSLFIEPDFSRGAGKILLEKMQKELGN

Row | Structure (SMILES) | % Inhibition @ 10 uM [%]
1 | N#CC1=C(N)Oc2c(c(=O)oc3ccccc23)C1c1ccc([N+](=O)[O-])cc1 (stereo not drawn) | -5.33
2 | CCSc1c(S)cnn(-c2ccccc2)c1=O | 1.7
3 | Cc1cccc(NC2=C(Cl)C(=O)N(c3ccccc3)C2=O)c1 | 2.68
4 | O=C1NC(=O)N(Cc2ccccc2)C(=O)/C1=C\c1ccc(SC2CCCCC2)o1 | -1.28
5 | COc1ccc(NC(=O)c2c(NC(=O)CCC(=O)O)sc3c2CCC(C)C3)cc1 (stereo not drawn) | 11.2
6 | Cc1nc(N2CCCC2)c2c3c(sc2n1)CC(C)CC3 (stereo not drawn) | -11.9
7 | COc1ccccc1Oc1ncnc2scc(-c3ccc(F)cc3)c12 | -3.4
8 | Cc1ccc(S(=O)(=O)Nc2cccc(F)c2)cc1C(N)=O | -9.7
9 | CSc1ccc(CN(C)CCc2ccccn2)cc1 | 5.56
10 | COc1ccc(-c2cc(C(F)(F)F)n3nc(C(=O)O)cc3n2)cc1 | -4.03
11 | O=C(CCCCCN1C(=O)c2ccccc2C1=O)Nc1ccc2c(c1)OCO2 | -5.51
12 | CCN(c1nc(C)cc(OC)n1)S(=O)(=O)c1ccccc1 | 6.65
13 | Cc1nn(CC(=O)NC2CCCc3ccccc32)c(=O)c2c1sc1ccccc12 (stereo not drawn) | 1.76
14 | CCC(C)(C#CCN1CCOCC1)OC(C)=O (stereo not drawn) | -0.693
15 | N#Cc1c2n(c3c(-c4ccccc4)ncnc13)CCC2 | 2.4
16 | COc1ccc(NC2CC(C)Nc3cc(OC)c(OC)cc32)cc1OC (stereo not drawn) | 3.53
17 | CNc1nc(NC(C)(C)C)nc(NC(C)(C)C)n1 | 4.22
18 | CCCCC1=NN(C(=O)c2ccc(O)cc2)C(O)(C(F)(F)F)C1 (stereo not drawn) | 2.36
19 | CSc1nc2ccccc2n1-c1ccccc1 | -1.55
20 | CC(C)CC(=O)Nc1cccc(-c2nc3cc(Cl)ccc3o2)c1 | -2.97
21 | CCN1CCC(NC2CCN(Cc3ccccc3)CC2)CC1 | 1.57
22 | Nc1c(N2CCOCC2)cc(O)c2c1C(=O)c1ccccc1C2=O | -0.0953
23 | CS(=O)(=O)N(CC(=O)NCC1CCCO1)c1cccc(F)c1 (stereo not drawn) | -5.07
24 | Cc1ccc(-n2nnc(-c3nc(-c4ccccc4C)no3)c2N)c(C)c1 | -2.72
25 | CCC(Oc1ccccc1)C(=O)NCc1ccc(C)cc1 (stereo not drawn) | -4.14
26 | Clc1cccc(-c2nnc3sc(C4COc5ccccc5O4)nn23)c1 (stereo not drawn) | 4.47

Row | Structure (SMILES) | % Inhibition @ 10 uM [%]
27 | CCOc1cc(/C=C2\SC(=N)N(c3nccs3)C2=O)ccc1OCC(N)=O | -1.02
28 | CCOC(=O)N1CCN(C(=O)c2ccc(CNS(=O)(=O)c3ccc(OC)cc3)cc2)CC1 | -7.16
29 | Cc1c(C(=O)NC(C)c2ccccc2)sc2nc3n(c(=O)c12)CCCCC3 (stereo not drawn) | -1.38
30 | COc1ccc(Cc2nnc(NC(=O)C(C)(C)Oc3ccc(Cl)cc3)s2)cc1 | 2.25
31 | O=C(CN1C(=O)c2cccc3cccc1c23)NCCC1=CCCCC1 | -3.49
32 | Cc1nn2c(=O)cc(COc3ccc(/C=C(\C#N)C(N)=O)cc3)nc2s1 | -2.19
33 | CCN(CC)C(=O)C1CCCN(Cc2ccc(F)cc2)C1 (stereo not drawn) | -1.92
34 | Cc1cccc(N(CC(=O)N2CCN(c3ccccc3)CC2)S(=O)(=O)c2ccccc2)c1C | 2.44
35 | COc1ccc(S(=O)(=O)Nc2ccccc2C(=O)NC(C)c2ccccc2)cc1OC (stereo not drawn) | 4.57
36 | Cc1nc2sccn2c(=O)c1S(=O)(=O)N1CCN(Cc2ccccc2)CC1 | -0.538
37 | CCN(CC)C(=O)COc1ccc2oc(C)c(C(=O)OC)c2c1 | 0.487
38 | CSC1=NSC2=NC(=O)/C(=C\c3ccc(OS(C)(=O)=O)cc3)C(=N)N12 | -1.58
39 | O=C(c1ccco1)N(Cc1cccc(Cl)c1)C1CCS(=O)(=O)C1 (stereo not drawn) | -0.469
40 | CCOc1ccccc1/C=C/C(=O)NCC(=O)N1CCC(N(C)C2CCCCCC2)CC1 | 0.689
41 | COc1ccc(-c2nnn(Cn3nnc4c(O)nc(Cc5ccc(F)cc5)nc43)n2)cc1OC | -1.47
42 | COc1ccc(Nc2nc(N3CCNCC3)nc(C)c2[N+](=O)[O-])cc1 | 1.04
43 | Nc1c(C(=O)O)cnn1-c1ccccc1 | 0.266
44 | COc1ccc(C(=O)NCCCN2CCOCC2)cc1 | 0.266
45 | O=C(CSc1nc(O)cc(-c2ccccc2)n1)NC1CCCCC1 | 3.72
46 | CCN(CC)C(=O)Cn1cc(S(=O)(=O)Cc2ccc(F)cc2)c2ccccc21 | 1.35
47 | Cc1c(C2(c3c(C)n(C)n(-c4ccccc4)c3=O)C(=O)N(C)c3ccc(Br)cc32)c(=O)n(-c2ccccc2)n1C | 5.29
48 | CN(C)CCN(C(=O)c1ccc2ncsc2c1)c1nc2ccc(Br)cc2s1 | -6.76
49 | COc1ccc(C=C2C(=O)OC(c3ccccc3)OC2=O)c(OC)c1OC (stereo not drawn) | -1.92
50 | Cc1ccc2c(CNCCc3ccc(Cl)cc3)c(C(=O)O)[nH]c2c1 | 0.16
51 | O=C1c2ccccc2C(=O)C1(c1ccccc1)N1CCOCC1 | -0.664
52 | CC(=O)c1ccc2c(c1O)C=CC(C)(C)O2 | 5.09

Row | Structure (SMILES) | % Inhibition @ 10 uM [%]
53 | CCCNC(=O)c1cc(-c2cccc(Cl)c2)on1 | -10
54 | COc1cc(C=C2C(=O)N(C)C(=O)N(C)C2=O)ccc1OCCOc1ccccc1 | 6.12
55 | COC(=O)C1=C(C)NC(=O)CC1c1cc(OC)c(OC)cc1Br (stereo not drawn) | 13.2
56 | Cc1cccc2c(C(=O)N3CCCCC3)cc(-c3ccccc3)nc12 | -0.615
57 | Cc1ccsc1C(=O)NC12CC3CC(CC(C3)C1)C2 | -1.65
58 | CCc1c(O)nc(SC(C)CC)n(-c2ccccc2)c1=O (stereo not drawn) | 0.135
59 | CCOC(=O)N1CCC(NC(=O)c2ccc(CS(=O)c3cccc(C)c3)o2)CC1 (stereo not drawn) | 2.83
60 | COCCNc1cnn(C23CC4CC(CC(C4)C2)C3)c(=O)c1Cl | 1.72
61 | CC1CCC(Nc2c(-c3cccs3)[nH]c3c(C#N)cnn23)CC1 (stereo not drawn) | 2.25
62 | CCOC(=O)c1cc2c(nc1C)-c1ccccc1/C2=N\C1CCCCC1 | 6.5
63 | COc1cccc(OCC(O)Cn2cnc3cc(C)c(C)cc32)c1 (stereo not drawn) | -15.2
64 | N#C/C(=C/c1cccs1)S(=O)(=O)c1ccccc1 | 4.65
65 | CCC(Sc1nc2c(sc3ccccc32)c(=O)n1CCCOC)C(=O)N1CCOCC1 (stereo not drawn) | 0.4
66 | COc1ccc(-c2nc(-c3cc4cc(C)ccc4nc3O)no2)cc1OC | -5.38
67 | Cc1cc(C)cc(OCC(=O)Nc2ncc(C)s2)c1 | 11.5
68 | c1ccc(-c2nc(NC3CCCCC3)c3ccccc3n2)cc1 | -3.21
69 | Cc1ccc(-n2c(=O)[nH]c3ccccc3c2=O)cc1 | 1.88
70 | COc1cc(C)c(CNc2cc(C)ccc2OC)cc1C | -9.1
71 | CCN(CC)S(=O)(=O)c1ccc(Br)c(C(=O)O)c1 | -5.94
72 | CCc1cc(=O)oc2c3c(ccc12)OCN(Cc1ccccc1Cl)C3 | -2.48
73 | COc1cc(C(=O)NC(C)c2ccc(O)cc2)nc2ccccc12 (stereo not drawn) | -2.19
74 | CC(C)CNC(=O)c1ccc(Cn2cc(Br)cn2)o1 | 3.8
75 | Cc1ccc2c(c1)cc1c(=O)n(CC(=O)NCc3ccccc3)nc(C)n12 | -9.45
76 | CS(=O)(=O)N(Cc1ccc(C(=O)NCc2ccccc2Cl)cc1)c1ccccc1 | -15.1
77 | COc1ccc(C2CC(C(F)(F)F)n3nc(C(=O)NCc4cccs4)cc3N2)cc1OC (stereo not drawn) | -0.478
78 | COc1ccc(CN2CC(C(=O)NCCCN3CCC(Cc4ccccc4)CC3)CC2=O)cc1 (stereo not drawn) | 1.62

Row | Structure (SMILES) | % Inhibition @ 10 uM [%]
79 | COc1ccc(-c2cc(C(F)F)n3ncc(C(=O)NC(C)C4CCCO4)c3n2)cc1 (stereo not drawn) | -0.958
80 | CCOc1ccc(-[n+]2c(-c3ccccc3)cn3c2CCC3)cc1 | 4.41
81 | O=C(NCc1nnc(SCC(=O)N2CCCC2)o1)c1cccs1 | -9.23
82 | CCOc1ccccc1NC(=O)c1ccc(Br)cc1 | -1.22
83 | Nc1ccc(C(=O)Nc2ccncc2)c(C(=O)O)c1 | 0.214
84 | CCC(=O)NS(=O)(=O)c1ccc(NC(=O)c2ccccc2Cl)cc1 | 3.53
85 | Clc1ccc(N2CCN(Cc3cccc(Br)c3)CC2)cc1 | -0.405
86 | CCOC(=O)c1c(C)oc2ncnc(N3CCC(c4ccccc4)C3)c12 (stereo not drawn) | -5.76
87 | Cc1ccc(NC(=O)CN(c2ccc(F)cc2)S(C)(=O)=O)cc1C | -3.25
88 | Cc1cccc(NC(=O)CN2C(=O)C3C4C=CC(C5CC45)C3C2=O)c1 (stereo not drawn) | -7.9
89 | CCOc1cc(-c2c(C)c(CC)nc(N)c2C#N)ccc1O | -4.21
90 | CCCC(=O)n1nc(-c2ccco2)nc1NCc1ccc(Cl)cc1 | -5.08
91 | Cc1ccc(CN2CCN(CC(=O)N3CCC4(CC3)OCCO4)C2=O)cc1 | -5.06
92 | COc1ccc(-n2c(C(F)(F)F)nc3ccccc3c2=O)cc1 | -0.949
93 | CCOC(=O)c1c(C)oc2ncnc(NCc3ccccc3OCC)c12 | 1.92
94 | Cc1ccc(Cl)cc1-n1ncc2c(NCC(=O)O)ncnc21 | -1.62
95 | CN1CCN(C(=O)NCCC2CCCCC2)CC1 | -0.132
96 | CN(CCCNC(=O)Cn1ncc2c3ccccc3n(C)c2c1=O)Cc1ccccc1 | -0.23
97 | Cc1ccc(S(=O)(=O)N2CCN(C(=O)OC(C)C)CC2)cc1 | -0.48
98 | O=C(Nc1cccc(Cl)c1)Nc1ccc(Cl)c(C(=O)O)c1 | 1.64
99 | CCc1ccc(-c2cc(C)no2)cc1S(=O)(=O)N1CCC(C)CC1 | -2.5
100 | Cc1csc2c(=O)n3c(nc12)CCCCC3 | 5.37
101 | c1cc2nsnc2c2c1Nc1nc3nonc3nc1N2 | 1.31
102 | COc1cccc(C2CC(=O)NC3=C2C(=O)CCC3)c1OC (stereo not drawn) | -4.53
